# PubChem BioAssay AID662 (National Center for Advancing Translational Sciences (NCATS), 2007)
# Out of some 71,000 compounds screened, about 1,800 (2.5%) were called active. The inconclusive results got no clear call from the source; some entries with a clear call stand among them for comparison. Calls come from the whole dose curve; as a rule, active = well fitted activation curve with a large enough effect in the signal ratio, with a control signal flat (not every such curve was filed as active); inconclusive = small, poorly fitted or top-dose-only effect, or effect the other way, or a change in a side signal; inactive = flat fitted curve, though single readings scatter; the % refers to the signal ratio. Potencies beside an inconclusive call are fits to weak or partial responses and may not hold up.
# Assay: Cell signaling CRE-BLA (Fsk stim); for activity change, negative = inhibition: % of control where 0% means no effect
# Settings: CHO CRE-bla reporter (cAMP response element driving beta-lactamase), forskolin EC10, beta-lactamase ratio; activity change, negative = inhibition: at 38.2 µM (top of the series) unless noted
# Outline: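 CRE-bla CHO cells stimulated with EC10 NKH 477 (water-soluble forskolin) and compound titrations, 3 h at 37C; beta-lactamase read with CCF4 after 2 h at room temperature. Activity from 460/530 nm emission ratio, AC50 values for positive or negative modulation.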
# Potency is the fitted concentration of half-maximal effect; tags give direction and shape of the fitted curve.
Compound,"activity change, negative = inhibition",Potency
Cc1ccc2[nH]c(=O)c(CN(CC3CCCO3)S(=O)(=O)c3c(C)ccc4nsnc34)cc2c1 (configuration not stated),inactive,–
CCCCOc1ccccc1NC(=O)CC1SC(=NCC)N(CC)C1=O (configuration not stated),inconclusive: -0.453% [at 7.6 µM],–
CN1CCN(CCCN)CC1,inactive: 5.74% [at 7.6 µM],–
CCn1c(=O)cc(OCC(=O)Nc2ccccc2N2CCN(C)CC2)c2ccccc21,–,active: 10 µM
CC(C)OC(=O)c1cccc(C(=O)O)n1,inconclusive: -8.79%,–
O=C(NCc1ccncc1)c1c(F)c(F)c(F)c(F)c1F,inconclusive: -15.8%,–
CN(C)c1ncc2nc(-c3cccs3)c(=O)n(CCc3ccccc3)c2n1,–,"inconclusive: 1.26 µM [rising, full curve]"
COCC(=O)Nc1nc2ccc(C)cc2s1,–,"inconclusive: 0.0794 µM [rising, full curve, poor fit]"
CCOC(=O)c1c(C)[nH]c(C(=O)OC/C(O)=C(\C#N)c2nc3ccccc3[nH]2)c1C,–,"inconclusive: 3.16 µM [rising, full curve, poor fit]"
O=C(CCCn1c(=O)c2sccc2n(Cc2ccc(F)cc2)c1=O)NCc1ccco1,inactive,–
CCN(CC)c1cccc(O)c1,inactive,–
Cc1ccc(S(=O)(=O)c2cc3c(=O)n4ccccc4nc3n(Cc3ccco3)c2=N)cc1,–,"inconclusive: 5.01 µM [rising, partial curve]"
CCN(CC)CCCNC(=O)c1cc2c(-c3ccc(Cl)cc3)nn(C)c2s1,–,"inconclusive: 7.94 µM [rising, partial curve]"
O=c1c2c3c(sc2nc2n1CCCC2)CCC3,–,"inconclusive: 15.8 µM [rising, single point]"
COc1ccccc1NC(=O)CSc1nc2ncccc2[nH]1,inconclusive: 10.9% [at 7.6 µM],–
COc1cc(-c2nnc(-c3ccco3)o2)ccc1OCc1ccccc1,–,"inconclusive: 15.8 µM [rising, partial curve]"
O=C(Nc1nc2ccccc2n1CCOc1ccc(Cl)cc1)c1ccco1,–,"inconclusive: 15.8 µM [rising, single point]"
CCC(=O)N1CCN(CCN=CC2=C(O)CC(c3cccs3)CC2=O)CC1 (configuration not stated),–,"inconclusive: 3.98 µM [rising, partial curve]"
CCOc1ccc(S(=O)(=O)N(CC(=O)N2CCc3ccccc32)Cc2ccco2)cc1,inconclusive: -8.65%,–
COC(=O)C1=C(C)N(c2cc(Cl)cc(Cl)c2)C(=O)C1,inconclusive: -22.9%,–
O=C1CCCC2=C1C1(CCCC1)N=C(Nc1nc3ccccc3s1)N2,inactive,–
CCCCn1c(SCC(=O)N2CCCC2)nc2c1c(=O)n(C)c(=O)n2C,–,"inconclusive: 20 µM [rising, single point]"
O=C(CSc1nnc(-c2cccs2)n1-c1ccccc1)Nc1ccccc1,–,"inconclusive: 6.31 µM [rising, partial curve]"
O=C(CCOc1ccccc1)NCC(c1ccco1)N1CCCCC1 (configuration not stated),inactive,–
O=c1c(-c2cc(F)cc(F)c2)nc2cnc(N3CCOCC3)nc2n1C1CC1,–,active: 1 µM
CCCCn1c(=O)c(C(=O)OCC)c(O)c2ccccc21,inactive,–

Compound,"activity change, negative = inhibition",Potency
Cc1ccc(-c2ccc(=O)n(CC(=O)N3CCN(c4cccc(C)c4)C(C)C3)n2)cc1 (configuration not stated),inactive,–
CCCCOC(=O)Cn1c(=N)n(CCN2CCOCC2)c2ccccc21,inconclusive: -2.9%,–
Cn1nc(-c2ccc(C(=O)N3CCN(c4ccccc4)CC3)cc2)c2ccccc2c1=O,inactive,–
O=C(c1cc2c(s1)CCC2)N1C(=O)c2ccccc2S1(=O)=O,–,"inconclusive: 3.16 µM [falling, single point]"
CCOc1cc(NC(=O)c2ccco2)c(OCC)cc1NC(=O)COc1ccccc1C,inactive,–
O=c1c(-c2ccc(Cl)cc2)nc2cnc(N3CCOCC3)nc2n1-c1ccccc1,–,"inconclusive: 0.1 µM [rising, full curve]"
O=CCCCC=O,–,"inconclusive: 25.1 µM [rising, partial curve]"
COc1cc(NC(=O)c2c(-c3ccccc3Cl)noc2C)c2ncccc2c1,inconclusive: 22.6%,–
CC(=O)Nc1cc2c(cc1C(=O)C(C)C)OCCO2,inactive,–
CCOc1ccc(NCC2CCOC(C)(C)C2)cc1 (configuration not stated),–,active: 3.16 µM
O=C(CSc1n[nH]c(-c2ccncc2)n1)Nc1ccccn1,inconclusive: 2.38%,–
Cn1c(C(=O)NC2CCCCC2)cc2c(=O)n(C)c3ccccc3c21,–,"inconclusive: 6.31 µM [rising, partial curve]"
O=C(Nc1ccc2c(c1)nc1n2CCCCC1)c1cc(S(=O)(=O)N2CCOCC2)ccc1Cl,–,"inconclusive: 5.01 µM [rising, partial curve]"
O=C(NCC(=O)N(Cc1cccs1)C(C(=O)NC1CCCC1)c1ccco1)c1cccs1 (configuration not stated),inactive,–
Cc1cc(C)n(CC(O)CN2c3ccccc3Sc3ccccc32)n1 (configuration not stated),inconclusive: -16.6%,–
Cc1cnc(C(=O)Nc2ccccc2-n2cccc2)cn1,inactive,–
O=C(Nc1cccc(C(F)(F)F)c1)C1CCCN(S(=O)(=O)c2cnc[nH]2)C1 (configuration not stated),inconclusive: 1.78%,–
O=C(CSc1nnc(CCCO)n1-c1ccccc1)Nc1nccs1,inconclusive: 18.8%,–
Cc1c(C)c(C)c(CC2(C)CSC2)c(CC2(C)CSC2)c1C,inactive: -6.78% [at 7.6 µM],–
C=C1CC[C@@H]2O[C@]2(C)CC[C@@H]2[C@H]1CC2(C)C,–,"inconclusive: 10 µM [falling, partial curve, poor fit]"
COc1ccccc1CNc1nc(-c2ccc(N(C)C)cc2)nc2ccccc12,inconclusive: 25.1% [fluorescent],–
CCc1cc(C(=O)c2ccccc2OC)c(N)s1,inconclusive: -23.5%,–
Cc1nc(C)c(-c2csc(NCc3ccco3)n2)s1,inconclusive: 24.9%,–
COc1nc(N(C)C)nc(N(OC)S(=O)(=O)c2ccccc2Cl)n1,–,"inconclusive: 12.6 µM [rising, partial curve]"
COc1ccc(C2=NOC(C(=O)NCCN3CCOCC3)C2)cc1 (configuration not stated),inconclusive: -25.2%,–
Cc1nc(SCC#N)c2c3c(sc2n1)CCC3,–,"inconclusive: 3.98 µM [rising, partial curve]"
